Assay results from the supplement of paper PMC4604168 (melanoma cell lines).
The list shows a part of the results. Single values are uncertain, as repeats are few or missing.

Tests used:
Assay in all cases: cell count relative to DMSO control; melanoma cells; higher = more viable cells
Details in all cases: library dose: low library concentration; 72 h
WM115 = tested on: WM115
WM1716 = tested on: WM1716
WM1745 = tested on: WM1745
WM3526 = tested on: WM3526
WM3619 = tested on: WM3619
WM451Lu = tested on: WM451Lu
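Also: cell number obtained by counting DAPI-stained nuclei in high-throughput microscope images with image analysis software, screen run in 1,536-well plates.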

Row | SMILES | cell count (WM115) | cell count (WM1716) | cell count (WM1745) | cell count (WM3526) | cell count (WM3619) | cell count (WM451Lu)
1 | Cc1cc(Nc2cc(N3CCN(C)CC3)nc(/C=C/c3ccccc3)n2)n[nH]1 + CCc1ccc(CCOc2ccc(CC3SC(=O)NC3=O)cc2)nc1 [pioglitazone] (first compound 0.04 µM, partner dose 2 µM) | 97.2% | 101% | 90.1% | 99.6% | 113% | 96.8%
2 | CC(C)C[C@H](NC(=O)[C@H](Cc1ccccc1)NC(=O)c1cnccn1)B(O)O [Bortezomib] + O=c1cc(-c2cccc3c2Sc2ccccc2S3)oc(N2CCOCC2)c1 [KU55933] (first compound 0.001 µM, partner dose 1 µM) | 107% | 26.8% | 47% | 67.3% | 22.9% | 77%
3 | Cc1cn(-c2cc(NC(=O)c3ccc(C)c(Nc4nccc(-c5cccnc5)n4)c3)cc(C(F)(F)F)c2)cn1 [nilotinib] + O=C(O)c1ccc2c(c1)nc(Nc1cccc(Cl)c1)c1ccncc12 [CX4945] (first compound 0.2 µM, partner dose 0.4 µM) | 102% | 83.2% | 86.7% | 87.7% | 99.8% | 101%
4 | COc1ccc(C2=N[C@@H](c3ccc(Cl)cc3)[C@@H](c3ccc(Cl)cc3)N2C(=O)N2CCNC(=O)C2)c(OC(C)C)c1 [Nutlin-3] + COc1ccc(-c2ccc3c(N4CCOCC4)nc(N4C[C@@H](C)O[C@@H](C)C4)nc3n2)cc1CO [KU0063794] (first compound 0.1 µM, partner dose 0.02 µM) | 75.7% | 89% | 94.9% | 84.8% | 78.2% | 92.9%
5 | Cn1c(=O)n(-c2ccc(C(C)(C)C#N)cc2)c2c3cc(-c4cnc5ccccc5c4)ccc3ncc21 + Oc1nc(-c2ccc(C(F)(F)F)cc2)nc2c1CSCC2 [XAV939] (first compound 0.004 µM, partner dose 2 µM) | 90% | 57.4% | 75.9% | 78.2% | 85.4% | 68.7%
6 | Cn1c(=O)n(-c2ccc(C(C)(C)C#N)cc2)c2c3cc(-c4cnc5ccccc5c4)ccc3ncc21 + CCN(CC)CCCCNc1ncc2cc(-c3cc(OC)cc(OC)c3)c(NC(=O)NC(C)(C)C)nc2n1 [PD173074] (first compound 0.004 µM, partner dose 0.1 µM) | 92.3% | 83.6% | 106% | 90.5% | 90.2% | 101%
7 | Cn1c(=O)n(-c2ccc(C(C)(C)C#N)cc2)c2c3cc(-c4cnc5ccccc5c4)ccc3ncc21 + CN(NC(=O)CC(=O)NN(C)C(=S)c1ccccc1)C(=S)c1ccccc1 [STA4783] (first compound 0.004 µM, partner dose 0.006 µM) | 72.8% | 72.9% | 57.9% | 95.7% | 64.9% | 92.8%
8 | Cn1c(=O)n(-c2ccc(C(C)(C)C#N)cc2)c2c3cc(-c4cnc5ccccc5c4)ccc3ncc21 + COCC[n+]1c2c(n(Cc3cnccn3)c1C)C(=O)c1ccccc1C2=O [YM155] (first compound 0.004 µM, partner dose 0.0004 µM) | 93% | 83.7% | 110% | 86.9% | 87.2% | 73.7%
9 | COc1ccc(C2=N[C@@H](c3ccc(Cl)cc3)[C@@H](c3ccc(Cl)cc3)N2C(=O)N2CCNC(=O)C2)c(OC(C)C)c1 [Nutlin-3] + COc1ccc2c(c1)CCC1C2CCC2(C)C(NCCCCCCN3C(=O)C=CC3=O)CCC12 [U73122] (first compound 0.1 µM, partner dose 0.4 µM) | 102% | 80.9% | 88.1% | 85.3% | 78.1% | 97.3%
10 | Cn1c(=O)n(-c2ccc(C(C)(C)C#N)cc2)c2c3cc(-c4cnc5ccccc5c4)ccc3ncc21 + O=C(Nc1ccccc1)c1cc([N+](=O)[O-])ccc1Cl [GW9662] (first compound 0.004 µM, partner dose 2 µM) | 99.4% | 96.5% | 101% | 102% | 83.5% | 140%
11 | COc1ccc(C2=N[C@@H](c3ccc(Cl)cc3)[C@@H](c3ccc(Cl)cc3)N2C(=O)N2CCNC(=O)C2)c(OC(C)C)c1 [Nutlin-3] + CC(=O)O[C@@]12CO[C@@H]1C[C@H](O)[C@@]1(C)C(=O)[C@H](O)C3=C(C)[C@@H](OC(=O)[C@H](O)[C@@H](NC(=O)OC(C)(C)C)c4ccccc4)C[C@@](O)([C@@H](OC(=O)c4ccccc4)[C@H]21)C3(C)C [Docetaxel] (first compound 0.1 µM, partner dose 0.0001 µM) | 67.3% | 45% | 66.8% | 58.6% | 50.8% | 64.7%
12 | CC(C)C[C@H](NC(=O)[C@H](Cc1ccccc1)NC(=O)c1cnccn1)B(O)O [Bortezomib] + C[C@@H]1CCN(C(=O)CC#N)C[C@@H]1N(C)c1ncnc2[nH]ccc12 [CP690550] (first compound 0.001 µM, partner dose 1 µM) | 114% | 28.9% | 75.7% | 99.7% | 24.4% | 80.6%
13 | COc1ccc(C2=N[C@@H](c3ccc(Cl)cc3)[C@@H](c3ccc(Cl)cc3)N2C(=O)N2CCNC(=O)C2)c(OC(C)C)c1 [Nutlin-3] + Cn1nnc2c(C(N)=O)ncn2c1=O [temozolomide] (first compound 0.1 µM, partner dose 2 µM) | 90% | 85.4% | 97.7% | 81.3% | 87.8% | 80.9%
14 | Cn1c(=O)n(-c2ccc(C(C)(C)C#N)cc2)c2c3cc(-c4cnc5ccccc5c4)ccc3ncc21 + CC(C)C[C@H](NC(=O)[C@H](Cc1ccccc1)NC(=O)c1cnccn1)B(O)O [Bortezomib] (first compound 0.004 µM, partner dose 0.001 µM) | 88.3% | 48.8% | 89.4% | 87.5% | 30.9% | 96.2%
15 | CC(C)C[C@H](NC(=O)[C@H](Cc1ccccc1)NC(=O)c1cnccn1)B(O)O [Bortezomib] + CNC(=O)c1cc(Oc2ccc(NC(=O)Nc3ccc(Cl)c(C(F)(F)F)c3)cc2)ccn1 [sorafenib] (first compound 0.001 µM, partner dose 0.4 µM) | 95.4% | 20.9% | 44.8% | 78.3% | 17.9% | 82%
16 | COc1ccc(C2=N[C@@H](c3ccc(Cl)cc3)[C@@H](c3ccc(Cl)cc3)N2C(=O)N2CCNC(=O)C2)c(OC(C)C)c1 [Nutlin-3] + C=C(c1ccc(C(=O)O)cc1)c1cc2c(cc1C)C(C)(C)CCC2(C)C [Bexarotene] (first compound 0.1 µM, partner dose 2 µM) | 87.2% | 82.2% | 83.3% | 77% | 84.9% | 94.1%
17 | CC(C)C[C@H](NC(=O)[C@H](Cc1ccccc1)NC(=O)c1cnccn1)B(O)O [Bortezomib] + Cn1cc(/C=C2\C(=O)Nc3cccnc32)c2ccccc21 [GW441756] (first compound 0.001 µM, partner dose 0.4 µM) | 103% | 25.2% | 58.5% | 88.9% | 17.6% | 81.1%
18 | Cn1c(=O)n(-c2ccc(C(C)(C)C#N)cc2)c2c3cc(-c4cnc5ccccc5c4)ccc3ncc21 + C=CCn1c(=O)c2cnc(Nc3ccc(N4CCN(C)CC4)cc3)nc2n1-c1cccc(C(C)(C)O)n1 [MK1775] (first compound 0.004 µM, partner dose 0.02 µM) | 75.8% | 61.6% | 86.1% | 83.2% | 75.3% | 101%
19 | CC(C)C[C@H](NC(=O)[C@H](Cc1ccccc1)NC(=O)c1cnccn1)B(O)O [Bortezomib] + O=C(CCCCCCC(=O)Nc1ccccc1)NO [vorinostat] (first compound 0.001 µM, partner dose 0.08 µM) | 103% | 41.7% | 76.8% | 89.3% | 37.2% | 105%
20 | Cn1c(=O)n(-c2ccc(C(C)(C)C#N)cc2)c2c3cc(-c4cnc5ccccc5c4)ccc3ncc21 + O=S(=O)(c1ccccc1)N(CC(F)(F)F)c1ccc(C(O)(C(F)(F)F)C(F)(F)F)cc1 [T0901317] (first compound 0.004 µM, partner dose 1.4 µM) | 87.5% | 90.4% | 88.1% | 84.7% | 88.1% | 76.1%
21 | Cc1cn(-c2cc(NC(=O)c3ccc(C)c(Nc4nccc(-c5cccnc5)n4)c3)cc(C(F)(F)F)c2)cn1 [nilotinib] + C=CCn1c(=O)c2cnc(Nc3ccc(N4CCN(C)CC4)cc3)nc2n1-c1cccc(C(C)(C)O)n1 [MK1775] (first compound 0.2 µM, partner dose 0.02 µM) | 97.3% | 70.9% | 82.1% | 93.4% | 100% | 73.8%
22 | Cc1cn(-c2cc(NC(=O)c3ccc(C)c(Nc4nccc(-c5cccnc5)n4)c3)cc(C(F)(F)F)c2)cn1 [nilotinib] + CCCCCCCCc1ccc(CCC(N)(CO)CO)cc1 [fingolimod] (first compound 0.2 µM, partner dose 2 µM) | 97.2% | 91.4% | 83.9% | 86.8% | 85.3% | 117%
23 | COc1ccc(C2=N[C@@H](c3ccc(Cl)cc3)[C@@H](c3ccc(Cl)cc3)N2C(=O)N2CCNC(=O)C2)c(OC(C)C)c1 [Nutlin-3] + C[C@@H](Oc1cc(-c2cnn(C3CCNCC3)c2)cnc1N)c1c(Cl)ccc(F)c1Cl [Crizotinib] (first compound 0.1 µM, partner dose 0.2 µM) | 90.1% | 86.4% | 85.4% | 96.2% | 95.8% | 106%
24 | Cn1c(=O)n(-c2ccc(C(C)(C)C#N)cc2)c2c3cc(-c4cnc5ccccc5c4)ccc3ncc21 + CCc1ccc(CCOc2ccc(CC3SC(=O)NC3=O)cc2)nc1 [pioglitazone] (first compound 0.004 µM, partner dose 2 µM) | 92.9% | 79.8% | 107% | 81.7% | 102% | 59.8%
